# Data as given in the supplement of paper PMC3334620.
# In all, about 33,000 sequences were measured (“E-score (-0.5 to 0.5)”: median about -0.043, highest 2% from about 0.37 on). This is one part of the list.
# Target: T1, Upc2 (UniProt Q12151)
# T1 sequence: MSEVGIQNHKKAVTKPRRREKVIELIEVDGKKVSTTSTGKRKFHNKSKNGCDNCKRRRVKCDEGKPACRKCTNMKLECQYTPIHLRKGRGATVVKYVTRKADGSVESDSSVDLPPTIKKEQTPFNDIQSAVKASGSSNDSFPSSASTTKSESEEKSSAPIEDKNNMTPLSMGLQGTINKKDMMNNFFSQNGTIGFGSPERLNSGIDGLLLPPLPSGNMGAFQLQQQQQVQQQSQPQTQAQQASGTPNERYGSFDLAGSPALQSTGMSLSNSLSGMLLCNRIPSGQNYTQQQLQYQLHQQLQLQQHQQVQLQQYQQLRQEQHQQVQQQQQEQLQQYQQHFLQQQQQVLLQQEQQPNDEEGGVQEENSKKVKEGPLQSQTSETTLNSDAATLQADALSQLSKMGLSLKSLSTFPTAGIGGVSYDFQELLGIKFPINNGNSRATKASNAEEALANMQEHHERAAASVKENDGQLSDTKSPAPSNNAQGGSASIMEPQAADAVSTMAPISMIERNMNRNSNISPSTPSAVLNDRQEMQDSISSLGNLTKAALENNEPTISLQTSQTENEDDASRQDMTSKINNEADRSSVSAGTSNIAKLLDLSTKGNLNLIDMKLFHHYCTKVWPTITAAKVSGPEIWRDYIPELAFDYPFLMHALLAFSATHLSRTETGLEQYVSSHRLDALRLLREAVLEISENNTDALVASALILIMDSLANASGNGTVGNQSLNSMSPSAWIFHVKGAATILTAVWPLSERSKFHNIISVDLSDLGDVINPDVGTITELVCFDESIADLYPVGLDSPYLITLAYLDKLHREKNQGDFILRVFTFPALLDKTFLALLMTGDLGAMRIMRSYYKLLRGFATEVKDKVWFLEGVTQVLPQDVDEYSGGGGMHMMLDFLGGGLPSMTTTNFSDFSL
# Experiment: PBM E-score (8-mer binding enrichment) (E-score (-0.5 to 0.5)); higher = stronger / more preferred TF binding; most listed sequences are background and not binding sites
# Settings: protein concentration: 200 nM; construct: GST-full length
# How it was run: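 Yeast transcription factors carrying a GST tag, as full-length proteins or DNA-binding domains, were produced by PURExpress in vitro transcription/translation. About 100-200 nM protein was applied to universal all-10-mer Agilent arrays, double-stranded by primer extension on fresh or once-stripped slides. Bound protein was detected with fluorescent anti-GST, and scans were normalised with masliner. The Universal PBM Analysis Suite gave each ungapped eight-base word, pooled with its reverse complement, an E-score, a modified Wilcoxon-Mann-Whitney statistic.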
row,Sequence,PBM E-score
1,CGGCGGAG,-0.113
2,CTAAGGGC,-0.21
3,TATGATAA,0.0585
4,AAACGCAT,0.177
5,TCGGGAAA,0.147
6,GTCTAATA,0.0467
7,ATAATCAA,-0.035
8,ATTTGACA,-0.0218
9,CCATCCGA,-0.0149
10,ATGCGGCA,-0.0824
11,GATCGCTA,0.0586
12,GCACTGGA,-0.0891
13,AAAGTAGA,-0.0604
14,CTCGACGA,-0.0893
15,CCTGCTCG,0.185
16,CTCAGGGA,-0.231
17,GCCAATCC,-0.0973
18,GTTGTGCA,0.0168
19,AACTTCGT,0.32
20,CCCACCCG,0.0201
21,GTTTTTGA,0.00143
22,ATGTACTC,-0.112
23,ACCCAATG,-0.306
24,ACGGCATC,0.213
25,GCCTTCTA,0.0289

row,Sequence,PBM E-score
1,AGCCTCAA,-0.154
2,ACCTTATC,-0.0439
3,AAGACGGT,-0.166
4,CCGGTGGC,-0.168
5,ATTACCCG,-0.0755
6,ATGCTTCC,0.019
7,ACACGGCA,0.119
8,CTCCGCTC,-0.0256
9,ACAGGCAG,-0.133
10,ACACCTGA,0.0227
11,GTTAGCGA,0.194
12,AAGGAATC,-0.115
13,CACTGACA,0.0345
14,CATCAATG,-0.228
15,CTGTTCAC,-0.0614
16,CTCCGGTA,0.0616
17,AAAGTCTG,-0.14
18,TCAGCTCA,-0.115
19,CTTCTATA,0.0642
20,CATACGAG,0.486
21,AATACCCT,-0.0205
22,GCGCAGGA,-0.149
23,CCTTACCC,-0.184
24,AAAGCTTG,0.139
25,GGGTTCTA,-0.194

row,Sequence,PBM E-score
1,AAAAGCCC,-0.219
2,AGTGAGGA,-0.0674
3,TTAACTAA,0.0891
4,AACCTGGG,-0.262
5,GCAAAGTA,0.0637
6,TCCCCACA,-0.394
7,AAGGTTGT,-0.213
8,CCCGCACA,0.13
9,GCTTCCAA,-0.0831
10,ACGGATCA,0.115
11,CCGGTATA,0.266
12,AAATTCTA,0.035
13,GCTTTGCC,-0.205
14,AGCGGCGA,0.0126
15,AGTCAATA,-0.111
16,AAAGGCGA,0.048
17,GGCGCTAC,-0.0337
18,ACACGGTG,-0.0718
19,CGGATCGA,0.0496
20,CCAACCCA,-0.236
21,ATTCAGGC,0.0405
22,CCACGGTC,-0.176
23,ACGACCAT,0.355
24,AGGTCAAT,-0.0612
25,GTGCATCA,-0.0319

row,Sequence,PBM E-score
1,AGAGCGTC,0.0902
2,GGCAGCTA,-0.107
3,AAGGCAGG,-0.367
4,AACGTGAG,-0.0661
5,CAGCCAAC,-0.176
6,CTATATAA,-0.0174
7,AATATTCT,0.0301
8,CAGAACTG,0.164
9,AGCGGTAT,0.0777
10,CGGACCCA,-0.078
11,ATTCCTAG,-0.257
12,ACGGCTTG,0.0582
13,CGGTGTGC,-0.123
14,ACTGTACA,0.133
15,TAAAAAAA,0.0499
16,GGTTGAGA,-0.183
17,TATCTGGA,-0.156
18,ACTTCTAC,0.00587
19,CGCCGACA,0.0133
20,CACGCCGC,-0.142
21,AGCGTGTC,-0.117
22,ACCAGGAT,-0.0837
23,CCTCCGGC,-0.0747
24,CTATATGA,0.0471
25,TCCTGACA,-0.183

row,Sequence,PBM E-score
1,ACACCAAT,-0.051
2,ATTATAGG,-0.029
3,AAACCAAC,-0.161
4,CAAGTGCA,-0.255
5,AATTACAC,-0.0651
6,GCAATTAC,-0.0538
7,TAATCAAA,-0.0608
8,AAACCTAT,-0.131
9,CAATAAGG,-0.351
10,ACTGACCA,0.00146
11,ATGGCGGC,-0.257
12,CCTCTACG,0.317
13,GCAGATCA,-0.161
14,ATACATTG,-0.0164
15,ATGTAGGC,-0.255
16,AGGCAACA,-0.253
17,AGGCGGAA,-0.0749
18,GGGCGGTA,-0.0676
19,TCGCACAA,0.182
20,TCGCTGAA,0.143
21,ATAAGTGG,0.00439
22,AACGTGCG,0.229
23,CTACTTCA,-0.188
24,CGCACCAC,-0.136
25,CGAATTAG,0.0301

row,Sequence,PBM E-score
1,GCGGACTA,-0.0999
2,CACCTTCG,0.051
3,GGGTATAC,0.255
4,ATACTACG,0.113
5,CAGCCATC,-0.0262
6,AGCGGGCG,0.0149
7,CAGGTCGG,-0.193
8,ACCACTTA,0.0727
9,GCAGGAGA,-0.102
10,CTATCCGC,0.204
11,GACCCAGC,-0.145
12,CTTATTGA,-0.104
13,AATTAAAC,0.275
14,CAAAGTAC,0.151
15,CACGAATA,0.175
16,AGGCTTAG,-0.0922
17,GCAAGGAA,-0.0986
18,ACCCGTAT,0.396
19,GCGTCTAC,0.00637
20,AGATTCTA,0.111
21,AACAACAC,-0.09
22,AAGAGACT,-0.0974
23,CCATTCGG,-0.0319
24,CTCGGTAA,0.232
25,AGATATCT,-0.353

row,Sequence,PBM E-score
1,AGATGGGC,-0.192
2,TAGTAATA,-0.0623
3,ACTACCAT,0.053
4,ACTAGGGA,-0.056
5,AAGCTTAT,-0.0584
6,CGAACCCG,0.171
7,CAATAGGA,-0.183
8,ACAAACGC,0.225
9,ACGCCGAA,0.221
10,CGAAACCA,0.201
11,ACCGATAT,0.0732
12,CATCAATA,0.0679
13,AACATTAC,-0.194
14,CGCGAAAC,0.137
15,CGTACGTA,0.364
16,AGCGCAGA,-0.0537
17,GTTAAGTA,0.0459
18,CTCATATA,-0.0874
19,CGCATCCC,0.0259
20,AATATCGA,-0.118
21,CAGCCGAA,-0.101
22,CACGGGAG,-0.163
